Laboratory results taken from PubChem BioAssay AID1745845 (National Center for Advancing Translational Sciences (NCATS), 2022).
Among all 360,000 compounds or so, about 2,600 (0.72%) were called active. The inconclusive results got no clear call from the source; some entries with a clear call stand among them for comparison. Calls follow the shape of the dose curve; as a rule, active = well fitted inhibition curve with a large enough effect; inconclusive = small, poorly fitted or top-dose-only effect; inactive = no such curve, though single readings can be large or run the other way. Where the call is inconclusive, the potency comes from a doubtful curve fit.

experiment: Primary qHTS for Inhibitors of ATXN expression; conditions: HEK-293 ATXN2-luciferase reporter, luminescence, 24 h; activity change, negative = inhibition: at 57 µM (top of the series); also: nearly all actives have a fitted effect of over 55% in size
Procedure, shortened: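 ATXN2-luciferase reporter cells (luciferase flanked by upstream and downstream ATXN2 gene portions) were treated 24 h at 37 °C with compounds at up to 57 uM. SteadyGlo luminescence gave expression; GF-AFC fluorescence gave viability.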
% is scaled to controls: 0 for no effect and ±100 for the full control effect; potency is read from the fitted curve at half-maximal effect; tags tell the direction and shape of the fitted curve.

Activity change, negative = inhibition, inactive:
CN(C)C(CNC(=O)CSc1nc2ccccc2c(=O)n1Cc1ccco1)c1ccccc1 (stereo not given) -8.55%
N#Cc1c(SCc2ccc(Cl)cc2)sc(C(=O)c2ccccc2)c1N -4.24%
COc1ccc(NC(=S)NCC(O)c2ccccc2)c(OC)c1 (stereo not given) 2.69%
Cc1ccc(N=Nc2cc(C)ccc2N)cc1 7.08%
CCC(CC)N1CCN(C(=O)c2cc(OC)c(OC)c(OC)c2)CC1 -0.877%
Cc1ccc(NC(=O)C2Cc3ccccc3CN2C(=O)c2ccco2)cc1S(=O)(=O)N(C)C (stereo not given) 66%
O=S(=O)(O)c1nnc2sc3ccccc3n12 7.07%
COc1ccccc1CNS(=O)(=O)c1cc(C)ccc1OC -6.9%
CCCCOc1ccc(C(=O)Nc2nnc3n2CCS3)cc1 -22.1%
O=C(CSc1nnc(COc2ccc(Cl)cc2)n1Cc1ccco1)c1ccccc1F 5.29%
CCOC(=O)c1cc2c(=O)n3ccccc3nc2n(Cc2ccco2)c1=NC(=O)c1cccnc1 9.42%
COc1cccc(CNC2CCCC2)c1 -2.18%
Cc1ccc(S(=O)(=O)N2CCN(c3ncnc4scc(-c5ccc(F)cc5)c34)CC2)cc1 0.35%
Cc1cc(C)nc(N(C#N)CN2C(=O)c3ccccc3C2=O)n1 -3.47%
COc1ccc(C(=O)NNc2ccccc2)cc1 -1.39%
C1=CC2CC1CC2CN1CCN(c2ccccc2)CC1 (stereo not given) -5.94%
N#Cc1nc(-c2ccccc2Cl)oc1N1CCCCC1 40.6%
CCOc1ccccc1N1CCN(Cc2cn[nH]c2-c2ccc(F)cc2)CC1 -11.9%
CCOC(=O)c1sc2ncn(CC(=O)Nc3ccc(N(C)C)cc3)c(=O)c2c1C 1.2%

Potency, inconclusive:
Cc1[nH]n(-c2ccccc2)c(=O)c1C=Nc1cccc2cccnc12 17.8 µM [inhibitor, partial curve, poor fit]
CCCc1ccc(C(C)NC(=S)NC2CCCCC2)cc1 (stereo not given) 31.6 µM [inhibitor, single point]
O=C(C[n+]1ccccc1)NNc1ccccc1 2.51 µM [inhibitor, full curve, poor fit]
Cc1ccc(-c2nnc(Nc3ccc(O)cc3)c3ccccc23)cc1S(=O)(=O)N1CCN(C)CC1 25.1 µM [inhibitor, partial curve, poor fit]
CC(C)(C)OC(=O)NCCCCCNC(=O)c1[nH]cnc1C(=O)N[C@@H](Cc1ccccc1)C(=O)OCc1ccccc1 39.8 µM [inhibitor, single point]
Cc1ccc(NC(=O)c2ccc(-c3nn(C)c(=O)c4ccccc34)cc2)cc1 25.1 µM [inhibitor, partial curve, poor fit]
COc1ccc(F)cc1S(=O)(=O)NCCc1c(C)[nH]c2c(Cl)cccc12 39.8 µM [inhibitor, single point]
COc1cc(NC(=O)NCc2ccco2)ccc1-c1ccc(NC(=O)NCc2ccco2)cc1OC 3.55 µM [inhibitor, full curve, poor fit]
COc1cc(/C=N/NC(=O)c2cncc(Br)c2)cc([N+](=O)[O-])c1O 31.6 µM [inhibitor, single point]
Cc1nc(C)c(-c2ccn(S(=O)(=O)c3ccc(Cl)cc3)n2)o1 20 µM [inhibitor, partial curve, poor fit]
C[C@@H]1CN([C@H](C)CO)C(=O)c2cccc(NC(=O)NC3CCCCC3)c2O[C@@H]1CN(C)C(=O)Nc1ccc(C(F)(F)F)cc1 31.6 µM [inhibitor, single point]
COc1cc(/C=C/C(=O)c2ccc(NS(=O)(=O)c3ccc(C)cc3)cc2)ccc1OC(F)F 39.8 µM [inhibitor, single point]
CCOc1ccc(CCN2C(=S)N([C@@H](Cc3ccc(O)cc3)CN3CCC[C@@H]3CN3C(=S)NC[C@@H]3CC(C)C)C[C@@H]2Cc2ccc(O)cc2)cc1 4.47 µM [inhibitor, full curve, poor fit]
CCN(CC)c1ccc(NS(=O)(=O)c2ccc(-c3cnc(C4CC4)o3)cc2)c(C)c1 39.8 µM [inhibitor, single point]
Cc1nnc(-c2ccccc2)c(=O)n1/N=C/c1c(O)ccc2ccccc12 2.82 µM [inhibitor, full curve, poor fit]
CCCn1c(SCc2nc(-c3ccc(OC)cc3OC)no2)nnc1-c1ccc(Cl)cc1 39.8 µM [inhibitor, single point]
CCc1cc2c(COC(=O)c3cc(S(=O)(=O)N4CCOCC4)ccc3F)cc(=O)oc2cc1O 31.6 µM [inhibitor, single point]
OC(CNCc1ccco1)Cn1c2ccc(Br)cc2c2cc(Br)ccc21 (stereo not given) 28.2 µM [inhibitor, single point]
COc1ccc(CCNC(=O)CCCn2c(=O)c3ccccc3n(Cc3cccc(Cl)c3)c2=O)cc1OC 39.8 µM [inhibitor, single point]
Cc1ccc(C)c(Sc2ccc(NC(=O)CCN3C(=O)NC4(CCCC4)C3=O)cc2)c1 28.2 µM [inhibitor, single point]
CCn1c2ccccc2c2cc(NC(=O)COC(=O)c3cc(S(=O)(=O)N4CCCCC4)ccc3Cl)ccc21 20 µM [inhibitor, partial curve]
O=C(NCC(F)(F)F)c1cc2c(c(-c3cccc(-c4ccccc4F)c3)n1)[C@@H](CCO)N(C(=O)CC1CC1)C2 39.8 µM [inhibitor, single point]

Potency, active:
Cc1cc(C)c(C#N)c(Sc2nc(C)c([N+](=O)[O-])c(C)c2C#N)n1 22.4 µM
CC[C@]12c3[nH]c4ccc(Cl)cc4c3CCN1C(=O)[C@@H](CC(=O)NCC13CC4CC(CC(C4)C1)C3)C[C@@H]2C(=O)N1CCN(C(=O)c2ccco2)CC1 25.1 µM
Cc1ccc(C)c(S(=O)(=O)N2CCN(Cc3ccc(O)c4ncccc34)CC2)c1 8.91 µM
C=CCc1cccc(/C=N/NC(=O)CCC(=O)Nc2ccc(C)cc2)c1O 14.1 µM
